# Measurements reported in patent publication US4480030A, “Tripeptide derivatives and their application in assaying enzymes” (Pentapharm A.G., priority 1980, dated 1984).
# Counter-ions that a name gives are not always drawn. Part of at least one peptide drawing is inferred or uncertain, most often the ends. Square brackets hold non-standard residues; d marks the D form. Peptide text beside a SMILES is read from it. * marks the point of attachment. dCha = N[C@H](CC1CCCCC1)C(=O)O; pNA = O=[N+]([O-])c1ccc(N*)cc1; AMC = Cc1cc(=O)oc2cc(N*)ccc12; dNle = CCCC[C@@H](N)C(=O)O; dNva = CCC[C@@H](N)C(=O)O; Octanoyl = CCCCCCCC(=O)*; βNA = c1ccc2cc(N*)ccc2c1; Cbz = O=C(OCc1ccccc1)*; PhAc = O=C(Cc1ccccc1)*; Boc = CC(C)(C)OC(=O)*; Aoc = NCCCCCCCC(=O)O; Butyryl = CCCC(=O)*; Bz = O=C(c1ccccc1)*; GABA = NCCCC(=O)O; Ms = CS(=O)(=O)*; Sar = CNCC(=O)O; Moc = COC(=O)*
# Biological target: T1, bovine factor Xa (Bos taurus, UniProt P00743)
# T1 construct: purchased Diagnostic Reagents Ltd., Thame, Great Britain factor Xa preparation "Diagen"
# T1 sequence (P00743 234-492 limits assumed): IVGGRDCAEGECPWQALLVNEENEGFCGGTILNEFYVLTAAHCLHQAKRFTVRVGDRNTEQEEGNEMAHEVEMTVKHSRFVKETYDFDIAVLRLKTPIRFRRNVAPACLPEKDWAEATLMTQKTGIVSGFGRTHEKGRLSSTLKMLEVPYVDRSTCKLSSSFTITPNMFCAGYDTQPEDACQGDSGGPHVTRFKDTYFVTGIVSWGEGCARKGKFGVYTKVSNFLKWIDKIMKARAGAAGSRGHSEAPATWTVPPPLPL
# T1 sequence (P00743 41-180 partner limits assumed): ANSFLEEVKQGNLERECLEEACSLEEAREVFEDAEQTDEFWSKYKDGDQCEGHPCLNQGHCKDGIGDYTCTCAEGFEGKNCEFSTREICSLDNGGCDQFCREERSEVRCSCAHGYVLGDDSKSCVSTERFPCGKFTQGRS
# Assay: Activity of bovine factor Xa solution on chromogenic/fluorogenic substrate (split product H-R5 released)
# Type: biochemical
# Settings: substrate concentration 2 × 10^-4; TRIS-imidazole buffer pH 8.4, ionic strength 0.3, 37° C.; factor Xa preparation "Diagen"; value calculated for 1 ml of factor Xa solution
# Procedure: The values of the factor Xa activity given in Table 4 were determined experimentally in the manner described hereinafter:
# For determining the activity of bovine factor Xa 1.8 ml of TRIS-imidazole buffer having a pH of 8.4 and an ionic strength of 0.3 was well mixed at 37° C. with 0.025 ml of an aqueous solution of factor Xa preparation "Diagen" (furnisher: Diagnostic Reagents Ltd., Thame, Great Britain) obtained by dissolving the contents of one vial in 0.5 ml of water. To the mixture there was added 0.2 ml of a 2×10^-3 M aqueous solution of a substrate of the invention. Thereafter, the quantity of split product H--R^5 in nanomoles released per minute was determined, and the corresponding value of 1 ml of factor Xa solution was calculated.
row,Compound,"Activity of 1 ml of aqueous solution of bovine factor Xa, expressed in nanomoles of split product H--R^5 released per minute"
1,"CCCC[C@@H](NC(C)=O)C(=O)NCC(=O)N[C@@H](CCCNC(=N)N)C(=O)Nc1ccc([N+](=O)[O-])cc1 [Example 36, Ac--D-Nleu--Gly--Arg--pNA.HBr] (Ac-[dNle]-Gly-Arg-pNA)",210 nanomoles of split product H--
2,"CCCC[C@@H](NC(=O)CCC)C(=O)NCC(=O)N[C@@H](CCCNC(=N)N)C(=O)Nc1ccc([N+](=O)[O-])cc1 [Example 37, n-Butyryl-D-Nleu--Gly--Arg--pNA.HBr] (Butyryl-[dNle]-Gly-Arg-pNA)",280 nanomoles of split product H--
3,"CCCCCCCC(=O)N[C@H](CCCC)C(=O)NCC(=O)N[C@@H](CCCNC(=N)N)C(=O)Nc1ccc([N+](=O)[O-])cc1 [Example 38, n-Octanoyl-D-Nleu--Gly--Arg--pNA.HBr] (Octanoyl-[dNle]-Gly-Arg-pNA)",295 nanomoles of split product H--
4,"CC(C)C[C@@H](NC(=O)Cc1ccccc1)C(=O)N(C)CC(=O)N[C@@H](CCCNC(=N)N)C(=O)Nc1ccc([N+](=O)[O-])cc1 [Example 39, 2-Phenylacetyl-D-Leu--Sar--Arg--pNA.HBr] (PhAc-[dL]-[Sar]-Arg-pNA)",980 nanomoles of split product H--
5,"CC(C)C[C@@H](NC(=O)CCCc1ccccc1)C(=O)N(C)CC(=O)N[C@@H](CCCNC(=N)N)C(=O)Nc1ccc([N+](=O)[O-])cc1 [Example 40, 4-Phenylbutryl-D-Leu--Sar--Arg--pNA.HBr]",825 nanomoles of split product H--
6,"CC(C)C[C@@H](NC(=O)C1CCCCC1)C(=O)N(C)CC(=O)N[C@@H](CCCNC(=N)N)C(=O)Nc1ccc([N+](=O)[O-])cc1 [Example 41, Cyclohexylcarbonyl-D-Leu--Sar--Arg--pNA.HBr]",600 nanomoles of split product H--
7,"CCCC[C@@H](NC(=O)CNC(=O)OCc1ccccc1)C(=O)N(C)CC(=O)N[C@@H](CCCNC(=N)N)C(=O)Nc1ccc([N+](=O)[O-])cc1 [Example 44, Cbo--Gly--D-Nleu--Sar--Arg--pNA.HBR] (Cbz-G[dNle][Sar]R-pNA)",105 nanomoles of split product H--
8,"CCCC[C@@H](NC(=O)CN)C(=O)N(C)CC(=O)N[C@@H](CCCNC(=N)N)C(=O)Nc1ccc([N+](=O)[O-])cc1 [Example 45, H--Gly--D-Nleu--Sar--Arg--pNA.2HBr] (H-G[dNle][Sar]R-pNA)",250 nanomoles of split product H--
9,"CCCC[C@@H](NC(=O)CCCN)C(=O)N(C)CC(=O)N[C@@H](CCCNC(=N)N)C(=O)Nc1ccc([N+](=O)[O-])cc1 [Example 47, ω -Aminobutyryl-D-Nleu--Sar--Arg--pNA.2HBr] (H-[GABA][dNle][Sar]R-pNA)",380 nanomoles of split product H--
10,"CCCC[C@@H](NC(=O)CCCCCCCN)C(=O)N(C)CC(=O)N[C@@H](CCCNC(=N)N)C(=O)Nc1ccc([N+](=O)[O-])cc1 [Example 49, ω -Aminooctanoyl-O-Nleu--Sar--Arg--pNA.2HBr] (H-[Aoc][dNle][Sar]R-pNA)",410 nanomoles of split product H--
11,"CCC[C@@H](NC(=O)c1ccccc1)C(=O)NCC(=O)N[C@@H](CCCNC(=N)N)C(=O)Nc1ccc([N+](=O)[O-])cc1 [Example 50, Bz--D-Nval--Gly--Arg--pNA.HBr] (Bz-[dNva]-Gly-Arg-pNA)",550 nanomoles of split product H--
12,"CCC[C@@H](NC(=O)c1ccc(C)cc1)C(=O)NCC(=O)N[C@@H](CCCNC(=N)N)C(=O)Nc1ccc([N+](=O)[O-])cc1 [Example 51, 4-Methylbenzoyl-D-Nval--Gly--Arg--pNA.HBr]",560 nanomoles of split product H--
13,"CCC[C@@H](NC(=O)c1ccccc1Cl)C(=O)NCC(=O)N[C@@H](CCCNC(=N)N)C(=O)Nc1ccc([N+](=O)[O-])cc1 [Example 52, 2-Chlorobenzoyl-D-Nval--Gly--Arg--pNA.HCl]",555 nanomoles of split product H--
14,"CCC[C@@H](NC(=O)Cc1ccc(N)cc1)C(=O)NCC(=O)N[C@@H](CCCNC(=N)N)C(=O)Nc1ccc([N+](=O)[O-])cc1 [Example 54, 2-(4-Amino)-phenylacetyl-D-Nval--Gly--Arg--pNA.2HBr]",740 nanomoles of split product H--
15,"CCC[C@@H](NC(=O)OC)C(=O)N(C)CC(=O)N[C@@H](CCCNC(=N)N)C(=O)Nc1ccc([N+](=O)[O-])cc1 [Example 55, CH3 O--CO--D-Nval--Sar--Arg--pNA.HBr] (Moc-[dNva]-[Sar]-Arg-pNA)",980 nanomoles of split product H--
16,"CCCCCCCCOC(=O)N[C@H](CCC)C(=O)N(C)CC(=O)N[C@@H](CCCNC(=N)N)C(=O)Nc1ccc([N+](=O)[O-])cc1 [Example 56, CH 3 --(CH2)7 --O--CO--D-Nval--Sar--Arg--pNA.HBr]",850 nanomoles of split product H--
17,"CC(C)C[C@@H](NC(=O)OC(C)(C)C)C(=O)NCC(=O)N[C@@H](CCCNC(=N)N)C(=O)Nc1ccc([N+](=O)[O-])cc1 [Example 57, BOC--D-Leu--Gly--Arg--pNA.HBr] (Boc-[dL]-Gly-Arg-pNA)",2440 nanomoles of split product H--
18,"COc1ccc(COC(=O)N[C@H](CC(C)C)C(=O)NCC(=O)N[C@@H](CCCNC(=N)N)C(=O)Nc2ccc([N+](=O)[O-])cc2)cc1 [Example 58, 4-MeO--Cbo--D-Leu--Gly--Arg--pNA.HBr]",2540 nanomoles of split product H--
19,"COC(=O)N[C@H](CC1CCCCC1)C(=O)NCC(=O)N[C@@H](CCCNC(=N)N)C(=O)Nc1ccc([N+](=O)[O-])cc1 [Example 59, CH3 O--CO--D-CHA--Gly--Arg--pNA.AcOH] (Moc-[dCha]-Gly-Arg-pNA)",2260 nanomoles of split product H--
20,"CCOC(=O)N[C@H](CC1CCCCC1)C(=O)NCC(=O)N[C@@H](CCCNC(=N)N)C(=O)Nc1ccc([N+](=O)[O-])cc1 [Example 60, C 2 H5 O--CO--D-CHA--Gly--Arg--pNA.AcOH]",3230 nanomoles of split product H--
21,"CS(=O)(=O)N[C@H](CC1CCCCC1)C(=O)NCC(=O)N[C@@H](CCCNC(=N)N)C(=O)Nc1ccc([N+](=O)[O-])cc1 [Example 61, CH3 SO2 --D-CHA--Gly--Arg--pNA.AcOH] (Ms-[dCha]-Gly-Arg-pNA)",2660 nanomoles of split product H--
22,"CC(C)C[C@@H](NC(=O)OCc1ccccc1)C(=O)NCC(=O)N[C@@H](CCCNC(=N)N)C(=O)Nc1ccc2ccccc2c1 [Example 62, Cbo--D-Leu--Gly--Arg--2-NA.HBr] (Cbz-[dL]-Gly-Arg-βNA)",1420 nanomoles of split product H--
23,"COC(=O)N[C@H](CC(C)C)C(=O)NCC(=O)N[C@@H](CCCNC(=N)N)C(=O)Nc1ccc2ccccc2c1 [Example 63, CH3 O--CO--D-Leu--Gly--Arg--2-NA.AcOH] (Moc-[dL]-Gly-Arg-βNA)",1540 nanomoles of split product H--
24,"CC(C)C[C@@H](NS(C)(=O)=O)C(=O)NCC(=O)N[C@@H](CCCNC(=N)N)C(=O)Nc1ccc2ccccc2c1 [Example 64, CH3 SO2 --D-Leu--Gly--Arg--2-NA.AcOH] (Ms-[dL]-Gly-Arg-βNA)",1520 nanomoles of split product H--
25,"COc1cc(NC(=O)[C@H](CCCNC(=N)N)NC(=O)CNC(=O)[C@@H](CC(C)C)NC(=O)OCc2ccccc2)cc2ccccc12 [Example 65, Cbo--D-Leu--Gly--Arg--4-MeO--2-NA.HBr]",1280 nanomoles of split product H--
26,"COC(=O)N[C@H](CC(C)C)C(=O)NCC(=O)N[C@@H](CCCNC(=N)N)C(=O)Nc1cc(OC)c2ccccc2c1 [Example 66, CH3 O--CO--D-Leu--Gly--Arg--4-MeO--2-NA.AcOH]",1370 nanomoles of split product H--
27,"COc1cc(NC(=O)[C@H](CCCNC(=N)N)NC(=O)CNC(=O)[C@@H](CC(C)C)NS(C)(=O)=O)cc2ccccc12 [Example 67, CH3 SO2 --D-Leu--Gly--Arg--4-MeO--2-NA.AcOH]",1410 nanomoles of split product H--
28,"COC(=O)N[C@H](CC(C)C)C(=O)NCC(=O)N[C@@H](CCCNC(=N)N)C(=O)Nc1ccc2c(C)cc(=O)oc2c1 [Example 70, CH3 O--CO--D-Leu--Gly--Arg--MCA.AcOH] (Moc-[dL]-Gly-Arg-{AMC})",1235 nanomoles of split product H--
29,"Cc1cc(=O)oc2cc(NC(=O)[C@H](CCCNC(=N)N)NC(=O)CNC(=O)[C@@H](CC(C)C)NS(C)(=O)=O)ccc12 [Example 71, CH3 SO2 --D-Leu--Gly--Arg--MCA.AcOH] (Ms-[dL]-Gly-Arg-{AMC})",1280 nanomoles of split product H--
